# Test results: PubChem BioAssay AID445 (National Center for Advancing Translational Sciences (NCATS), 2006)
# Among all 110,000 compounds or so, about 40 (0.04%) were called active. Inconclusive means that the source gave no clear call. Such entries were picked first, then a sample of the others. The call rests on the fitted dose curve; in most records, active means well fitted curve in the direction sought with a large enough effect in the signal ratio (not every such curve was filed as active); inconclusive means small, poorly fitted or top-dose-only effect, or a change in a side signal; inactive means flat fitted curve, though single readings scatter; the % refers to the signal ratio. Potencies beside an inconclusive call are fits to weak or partial responses and may not hold up.
# Assay: IkB Signaling;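 on IkBa stabilization activation: 0% = basal untreated cells and 100% = reference inhibitor full response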
# Details: ABC-DLBCL IkBa-CBG/CBR dual luciferase ratio (green luciferase fused to IkBa over red control in OCI-Ly3 lymphoma cells), 4 h; IkBa stabilization activation: at 57.1 µM (top of the series), scaled: untreated 0%, proteasome inhibitor 100% unless noted
# Method in brief: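 Curves were fitted separately to fusion (green), unfused (red) and ratio luminescence, then classed by r2, magnitude and activity. Cells: OCI-Ly3, 4 h compound plus doxycycline at 37C; 10 uM MG-132 defined full response.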
# Potency means the concentration at half of the fitted maximal effect.
Compound,IkBa stabilization activation,Potency
CCOc1ccc(-n2c(Cc3ccccc3)nnc2SCc2nc(-c3ccccc3C)no2)cc1,inconclusive: -0.293% [signal inhibitor],–
COc1cc(-c2nc(-c3cccc(C)c3)no2)cc(OC)c1OC,inconclusive: 4.02% [signal inhibitor],–
CCS(=O)(=O)N1CCc2cc(C(=O)N3CCN(c4cccc(C(F)(F)F)c4)CC3)ccc21,inconclusive: 1.14% [signal inhibitor],–
Cc1ccc(NC(=O)C(=O)NCC(c2cccnc2)N2CCOCC2)cc1C (stereo not given),inconclusive: -4.24% [signal inhibitor],–
C=COCCNC(=O)Nc1ccc(Cl)c(Cl)c1,inconclusive: 3.51% [signal inhibitor],–
OC[C@H]1O[C@H](n2cnc3c(NC4CCCC4)nc(Cl)nc32)[C@@H](O)[C@@H]1O,inactive: 0.521%,–
Cc1cc(-c2ccc(N3C(=O)CCC3=O)c(C)c2)ccc1N1C(=O)CCC1=O,inactive: 0.439%,–
Oc1cccc(C(Nc2ccccn2)c2ccc3cccnc3c2O)c1Cl (stereo not given),inconclusive: 16.4% [signal inhibitor],–
CCOC(=O)N1CCN(CCC(=O)Nc2ccc(C)c(Br)c2)CC1,inactive: -2.95%,–
COc1ccc(OC)c(-c2cc(C(=O)N3CCCc4ccccc43)no2)c1,inconclusive: 4.59% [signal inhibitor],–
Cc1ccc(C(=O)c2oc3ccccc3c2NC(=O)c2cc(=O)c3ccccc3o2)cc1,inactive: -2.93%,–
CCOC(=O)Cc1ccc(NC(=O)n2ncc3c(C)cccc32)cc1,inconclusive: 7.72% [signal inhibitor],–
Nc1ccc(S(=O)(=O)Nc2ccccn2)cc1,"inactive: 1.2% [at 25.6 µM, scaled: untreated 0%, proteasome inhibitor 100%]",–
CN1[C@@H]2CC[C@H]1CC(OC(c1ccccc1)c1ccccc1)C2 (stereo not given in full),inactive,–
COc1ccc(OC)c(NC(=O)c2cc(-c3ccc(C)cc3O)n[nH]2)c1,–,"inconclusive: 25.1 µM [signal inhibitor, partial curve]"
Clc1ccccc1OCc1nc(-c2ccccn2)no1,inconclusive: 6.05% [signal inhibitor],–
COC(=O)c1ccc(C2Nc3c(C)cc(C)cc3C3C=CCC32)cc1 (stereo not given),inconclusive: 8.82% [signal inhibitor],–
COc1ccc(C(CNC(=O)COc2ccc(C)c(C)c2)N2CCCCC2)cc1 (stereo not given),inconclusive: 1.72% [signal inhibitor],–
O=C(c1cnccn1)N1CCC[C@@]2(CCN(Cc3cc(C(F)(F)F)cc(C(F)(F)F)c3)C2)C1,"inactive: 1.01% [at 11.4 µM, scaled: untreated 0%, proteasome inhibitor 100%]",–
CC(=O)c1ccccc1[N+](=O)[O-],inactive: 0.168%,–
